The supplement of paper PMC12217912
The list shows a part of the results. The full chains were built here from the parent and the listed change. Inactive controls read about 0.05.

B1: TEV protease; numbered along this chain (parent)
chain: MGESLFKGPRDYNPISSSICHLTNESDGHTTSLYGIGFGPFIITNKHLFRRNNGTLVVQSLHGVFKVKDTTTLQQHLVDGRDMIIIRMPKDFPPFPQKLKFREPQREERICLVTTNFQTKSMSSMVSDTSCTFPSGDGIFWKHWIQTKDGQCGSPLVSTRDGFIVGIHSASNFTNTNNYFTSVPKNFMELLTNQEAQQWVSGWRLNADSVLWGGHKVFMVKPEEPFQPVKEATQL

Variants of: B1
Test: raw area under fraction-flipped curve 0-4 h after induction (AUC4h, not background-subtracted), DNA-recorder readout of cleavage of the substrate (dimensionless); higher = more cleavage of the substrate by the protease variant
Conditions: temperature: 34 °C; time window: 0-4 h after rhamnose induction
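Also: Bxb1 expression induced with 0.2% (w/v) L-rhamnose at OD600 near 0.5, cultures sampled hourly, flipped fraction per protease–substrate barcode pair counted by paired-end Illumina sequencing.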

Variant	area with substrate ENLYFCS	area with substrate ENLYFES	area with substrate ENLYFIS	area with substrate ENLYFMS	area with substrate ENLYFNS	area with substrate ENLYFPS	area with substrate ENLYFRS	area with substrate ENLYFTS	area with substrate ENLYFWS	area with substrate ENLYFYS	area with substrate ENLYFFS	area with substrate ENLYFGS	area with substrate ENLYFLS	area with substrate ENLYFSS	area with substrate ENLYFVS	area with substrate ENLYFKS	area with substrate ENLYFHS	area with substrate ENLYFDS
MGESLFKGPRDYNPISSSICHLTNESDGHTTSLYGIGFGPFIITNKHLFRRNNGTLVVQSLHGVFKVKDTTTLQQHLVDGRDMIIIRMPKDFPPFPQKLKFREPQREERICLVTTNFQTKSMSSMVSDTSCTFPSGDGIFWKHWIQTKDGQCGSPLVSTRDGFIVGIHSASNFTNTNNYFTSVPKNFMELLTNQMAQQWVSGWRLNADSVLWGGHKVFMVKPEEPFQPVKEATQL [E195M]	0.0611	0.0571	0.0432	0.0627	0.0574	0.0547	0.0552	0.0582	0.0823	0.0568								
MGESLFKGPRDYNPISSSICHLTNESDGHTTSLYGIGFGPFIITNKHLFRRNNGTLVVQSLHGVFKVKDTTTLQQHLVDGRDMIIIRMPKDFPPFPQKLKFREPQREERICLVTTNFQTKSMSSMVSDTSCTFPSGDGIFWKHWIQTKDGQCGSPLVSTRDGFIVGIHSASNFTNTNNYFTSVPKNFMELLTNQEAQQWVSGWRLNADSVLWGGHKVFMVKPEEPFQPVIEATQL [K230I]	0.0578	0.0617	0.0453	0.0639	0.0647	0.0635	0.0535	0.0471			0.0702	0.0504	0.0621	0.071	0.0617			
MGESLFKGPRDYNPISSSICHLTNESDGHTTSLYGIGFGPFIITNKHLFRRNNGTLVVQSLHGVFKVKDTTTLQQHLVDGRDMIIIRMPKDFPPFPQKLKFREPQREERICLVTTNFQTKSMSSMVSDTSCTFPSGDGIFWKHWIQTKDGQCGSPLVSTRDGFIVGIHSASNFTNTNNYFTSVPKNFMELLTNQEAQQLVSGWRLNADSVLWGGHKVFMVKPEEPFQPVKEATQL [W199L]	0.0583	0.062	0.0617	0.0597	0.0609	0.0592	0.0611		0.052	0.0527		0.0732			0.0382			
MGESLFKGPRDYNPISSSICHLTNESDGHTTSLYGIGFGPFIITNKHLFRRNNGTLVVQSLHGVFKVKDTTTLQQHLVDGRDMIIIRMPKDFPPFPQKLKFREPQREERICLVTTNFQTKSMSSMVSDTSCTFPSGDGIFWKHWIQTKDGQCGSPLVSTRDGFIVGIHSASNFTNTNNYFTSVPKNFMELLTNQEAQQWVSGWRLNADSVLWGGHKVFMVKPEEPFQPIKEATQL [V229I]	0.0526	0.0492	0.0586	0.0701		0.0629	0.0619	0.0668	0.0553			0.0567				0.0533		
MGESLFKGPRDYNPISSSICHLTNESDGHTTSLYGIGFGPFIITNKHLFRRNNGTLVVQSLHGVFKVKDTTTLQQHLVDGRDMIIIRMPKDFPPFPQKLKFREPQREERICLVTTNFQTKSMSSMVSDTSCTFPSGDGIFWKHWIQTKDGQCGSPLVSTRDGFIVGIHSASNFTNTNNYFTSVPKNFMELLTNQEAQQWVAGWRLNADSVLWGGHKVFMVKPEEPFQPVKEATQL [S201A]	0.0728	0.0501	0.0843	0.0637	0.0594		0.0596	0.0485	0.0631		0.0797		0.0578	0.0607		0.0559	0.0519	
MGESLFKGPRDYNPISSSICHLTNESDGHNTSLYGIGFGPFIITNKHLFRRNNGTLVVQSLHGVFKVKDTTTLQQHLVDGRDMIIIRMPKDFPPFPQKLKFREPQREERICLVTTNFQTKSMSSMVSDTSCTFPSGDGIFWKHWIQTKDGQCGSPLVSTRDGFIVGIHSASNFTNTNNYFTSVPKNFMELLTNQEAQQWVSGWRLNADSVLWGGHKVFMVKPEEPFQPVKEATQL [T30N]		0.0679	0.0597		0.0642	0.0636	0.0611	0.0532	0.0523		0.0574		0.0636		0.052	0.0577	0.0587	0.0625
MGESLFKGPRDYNPISSSICHLTNESDGHTTSLYGIGFGPFIITNKHLFRRNNGTLVVQSLHGVFKVKDTTTLQQHLVDGRDMIIIRMPKDFPPFPQKLKFREPQREERICLVTTNFQTKSMSSMVSDTSCTFPSGDGIFWKHWIQTKDGQCGSPLVSTRDGFIVGIHSASNFTNTNNYFTSVPKNFMELLTNQEAQQWVSGWRLNNDSVLWGGHKVFMVKPEEPFQPVKEATQL [A207N]	0.0723	0.0646	0.0663	0.0598		0.0648	0.0608	0.0543	0.0504		0.0638		0.05			0.0645	0.0648	0.0603
MGESLFKGPRDYNPISSSICHLTNESDGHTTSLYGIGFGPFIITNKHLFRRNNGTLVVQSLHGVFKVKDTTTLQQHLVDGRDMIIIRMPKDFPPFPQKLKFREPQREERICLVTTNFQTKSMSSMVSDTSCTFPSGDGIFWKHWIQTKDGQCGSPLVSTRDGFIVGIHSASNFTNTNNYFTSVPKNFMELLTNQEAQQWVSGWRLNADSVLWGGHKDFMVKPEEPFQPVKEATQL [V217D]	0.0582		0.0525	0.0556		0.0645		0.0617	0.0627		0.0584			0.066				
MGESLFKGPRDYNPISSSICHLTNESDGHTTSLYGIGFGPFIITNKHLFRRNNGTLVVQSLHGVFKVKDTTTLQQHLVDGRDMIIIRMPKDFPPFPQKLKFREPQREERICLVTTNFQTKSMSSMVSDTSCTFPSGDGIFWKHWIQTKDGQCGSPLVSTRDGFIVGIHSASNFTNTNNYFTSVPKNFMELLTNQEAQQWVSGWRLNADSVLQGGHKVFMVKPEEPFQPVKEATQL [W212Q]	0.0574	0.079	0.0589	0.0761	0.0454	0.0627	0.0612	0.0578	0.0615	0.0511	0.0708	0.0592	0.0585	0.0529				0.084
MGESLFKGPRDYNDISSSICHLTNESDGHTTSLYGIGFGPFIITNKHLFRRNNGTLVVQSLHGVFKVKDTTTLQQHLVDGRDMIIIRMPKDFPPFPQKLKFREPQREERICLVTTNFQTKSMSSMVSDTSCTFPSGDGIFWKHWIQTKDGQCGSPLVSTRDGFIVGIHSASNFTNTNNYFTSVPKNFMELLTNQEAQQWVSGWRLNADSVLWGGHKVFMVKPEEPFQPVKEATQL [P14D]		0.0638	0.0748	0.065	0.0563	0.0553	0.0516	0.0908	0.0638	0.0608	0.0654	0.0401	0.0501	0.0674	0.057	0.0598	0.056	0.0476
MGESLFKGPRDYNPISSSICHLTNESDGHTTSLYGIGGGPFIITNKHLFRRNNGTLVVQSLHGVFKVKDTTTLQQHLVDGRDMIIIRMPKDFPPFPQKLKFREPQREERICLVTTNFQTKSMSSMVSDTSCTFPSGDGIFWKHWIQTKDGQCGSPLVSTRDGFIVGIHSASNFTNTNNYFTSVPKNFMELLTNQEAQQWVSGWRLNADSVLWGGHKVFMVKPEEPFQPVKEATQL [F38G]					0.0527	0.0342		0.0522							0.0654			0.0428
MGESLFKGPRDYNPISSSICHLTMESDGHTTSLYGIGFGPFIITNKHLFRRNNGTLVVQSLHGVFKVKDTTTLQQHLVDGRDMIIIRMPKDFPPFPQKLKFREPQREERICLVTTNFQTKSMSSMVSDTSCTFPSGDGIFWKHWIQTKDGQCGSPLVSTRDGFIVGIHSASNFTNTNNYFTSVPKNFMELLTNQEAQQWVSGWRLNADSVLWGGHKVFMVKPEEPFQPVKEATQL [N24M]		0.0749	0.0492	0.0633	0.06								0.0548			0.0476		0.0758
MGESLFKGPRDYNPISSSICHLTNESDGHTTSLYGIGFGPFIITNKHLFRRNNGTLVVQSLHGVFKVKDTTTLQQHLVDGRDMIIIRMPKDFPPFPQKLKFREPQREERICLVTTNFQTKSMSSMVSDTSCTFPSGDGIFWKHWIQTKDGQCGSPLVSTRDGFIVGIHSASNFTNTNNYFTSVPKNFMELLTNQEAQQWVSGWRLNADSVLWGGHKVFMVKPEEPFQPVKEATFL [Q234F]	0.0733		0.0522	0.0733	0.0547	0.0683	0.0605		0.0751	0.0492		0.0715		0.0606		0.0554		0.0454
MGESLFKGPRDYNPISSSICHLTNESDGHTTSLYGIGFGPFIITNKHLFRRNNGTLVVQSLHGVFKVKDTTTLQQHLVDGRDMIIIRMPKDFPPFPQKLKFREPQREERICLVTTNFQTKSMSSMVSDTSCTFPSGDGIFWKHWIQTKDGQCGSPLVSTRDGFIVGIHSASNFTNTNNYFTSVPKNFMELLTNQEAQQWMSGWRLNADSVLWGGHKVFMVKPEEPFQPVKEATQL [V200M]	0.0559	0.0533	0.0547	0.0388	0.0835	0.0596	0.053		0.0784	0.0544			0.0593		0.0585	0.0586	0.0545	
MGESLFKGPEDYNPISSSICHLTNESDGHTTSLYGIGFGPFIITNKHLFRRNNGTLVVQSLHGVFKVKDTTTLQQHLVDGRDMIIIRMPKDFPPFPQKLKFREPQREERICLVTTNFQTKSMSSMVSDTSCTFPSGDGIFWKHWIQTKDGQCGSPLVSTRDGFIVGIHSASNFTNTNNYFTSVPKNFMELLTNQEAQQWVSGWRLNADSVLWGGHKVFMVKPEEPFQPVKEATQL [R10E]		0.0652	0.0642	0.0655		0.063	0.0666	0.0469	0.0539		0.0635			0.0725	0.0587	0.0585		0.0408
MGESLFKGPRDYNPISSSICHLTNESDGHTTSLYGIGFGPFIITNKHLFRRNNGTLVVQSLHGVFKVKDTTTLQQHLVDGRDMIIIRMPKDFPPFPQKLKFREPQREERICLVTTNFQTKSMSSMVSDTSCTFPSGDGIFWKHWIQTKDGQCGSPLVSTRDGFIVGIHSASNFTNTNNYFTSVPKNFMELLTNLEAQQWVSGWRLNADSVLWGGHKVFMVKPEEPFQPVKEATQL [Q194L]	0.0647	0.0547		0.0818	0.0621	0.0504	0.0606	0.0618	0.0639	0.0494	0.0832			0.05				0.0491
MGESLFKGPRDYNPISSSICHLTNESDGHTTSLYGIGFGPFIITNKHLFRRNNGTLVVQSLHGVFKVKDTTTLQQHLVDGRDMIIIRMPKDFPPFPQKLKFREPQREERICLVTTNFQTKSMSSMVSDTSCTFPSGDGIFWKHWIQTKDGQCGSPLVSTRDGFIVGIHSASNFTNTNNYFTSVPKNFMELLTNQEAQQWVSGWRLNADSVLWGGHKVFMVKPEEDFQPVKEATQL [P225D]	0.0582		0.062	0.0551		0.06	0.0574			0.0451	0.0654				0.0413	0.0585		
MGESLFKGPRDYNPISSSICHLTNESDGHTTSLYGIGFGPFIITNKHLFRRNNGTLVVQSLHGVFKVKDTTTLQQHLVDGRDMIIIRMPKDFPPFPQKLKFREPQREERICLVTTNFQTKSMSSMVSDTSCTFPSGDGIFWKHWIQTKDGQCGSPLVSTRDGFIVGIHSASNFTNTNNYFTSVPKNFMELLTNQEAQQWVSGWRLNADSVPWGGHKVFMVKPEEPFQPVKEATQL [L211P]	0.0652	0.0682	0.0608	0.0642	0.0641	0.0589			0.0507		0.0633			0.0755				0.0669
MGESLFKGPRDYNPISSSICHLTNESDGHTTSLYGIGFGPFIITNKHLFRRNNGTLVVQSLHGVFKVKDTTTLQQHLVDGRDMIIIRMPKDFPPFPQKLKFREPQREERICLVTTNFQTKSMSSMVSDTSCTFPSGDGIFWKHWIQTKDGQCGSPLVSTRDGFIVGIHSASNFTNTNNYFTSVPKNFMELLTNQEAQQWVSGWRLNADSSLWGGHKVFMVKPEEPFQPVKEATQL [V210S]	0.0607		0.0559	0.0493	0.0629	0.0832		0.0547		0.06	0.0767	0.0508	0.0554			0.0468	0.0403	0.0633
